# According to PubChem BioAssay AID489043 (National Center for Advancing Translational Sciences (NCATS), 2010):
# Inconclusive means that the source gave no clear call. Such entries were picked first, then a sample of the others. A potency beside an inconclusive call is a rough fit, not a confirmed value. Activity calls are given as the source filed them. The call rests on the fitted dose curve; in most records, active means well fitted activation curve with a large enough effect; inconclusive means small, poorly fitted or top-dose-only effect; inactive means flat fitted curve, though single readings scatter.
# Molecular target: Relaxin receptor 2 (Homo sapiens) (UniProt Q8WXD0)
# UniProt Q8WXD0, sequence (Q8WXD0 whole entry, looked up): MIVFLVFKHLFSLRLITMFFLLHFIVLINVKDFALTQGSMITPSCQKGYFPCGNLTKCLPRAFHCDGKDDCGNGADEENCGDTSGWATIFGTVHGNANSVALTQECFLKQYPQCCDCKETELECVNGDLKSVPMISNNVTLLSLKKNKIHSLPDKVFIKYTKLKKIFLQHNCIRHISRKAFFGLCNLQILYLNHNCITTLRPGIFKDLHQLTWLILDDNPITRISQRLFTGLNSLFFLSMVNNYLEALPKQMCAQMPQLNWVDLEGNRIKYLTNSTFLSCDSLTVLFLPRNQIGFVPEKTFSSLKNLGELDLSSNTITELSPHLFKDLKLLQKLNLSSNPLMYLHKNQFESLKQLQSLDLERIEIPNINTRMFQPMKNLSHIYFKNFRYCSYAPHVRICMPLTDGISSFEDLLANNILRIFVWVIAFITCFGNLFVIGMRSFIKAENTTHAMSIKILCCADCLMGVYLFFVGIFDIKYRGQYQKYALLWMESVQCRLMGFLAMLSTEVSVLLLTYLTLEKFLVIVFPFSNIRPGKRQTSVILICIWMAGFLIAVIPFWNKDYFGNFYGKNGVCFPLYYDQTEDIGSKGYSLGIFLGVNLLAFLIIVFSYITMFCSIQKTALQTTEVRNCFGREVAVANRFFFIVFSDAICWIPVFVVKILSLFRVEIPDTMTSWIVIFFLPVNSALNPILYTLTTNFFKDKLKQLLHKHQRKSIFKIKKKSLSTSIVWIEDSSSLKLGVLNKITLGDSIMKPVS
# Test: qHTS Assay for Agonists of the Relaxin Receptor RXFP1: RXFP2 Hit Validation; further: nearly all actives have a fitted effect of over 65% in size
# Conditions: HEK293 RXFP2 cAMP TR-FRET, 30 min; series mostly up to 115 µM; activation: at the top concentration
# In short: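 TR-FRET cAMP read-out in lysed HEK293 RXFP2 cells, normalized to buffer (basal) and 29 nM porcine relaxin (100%). Compounds 30 min, 37C, with Ro 20174 present. EC50 via standard Hill equation.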
# Potency means the concentration at half of the fitted maximal effect; tags describe the fitted curve by direction and shape.
SMILES,Potency,activation
COc1ccc(C(C)=O)cc1Cn1cnc2c(cnn2C)c1=O,"inconclusive: 12.3 µM [activator, partial curve]",
CC(=O)C1C(c2ccccc2)c2c(noc2C)CC1(C)O (stereo not drawn),,inactive: -5.3%
COC(=O)[C@@H]1C[C@@]2(O)[C@H](O)[C@H](O)[C@H](O)C[C@H]2N1Cc1cc(F)ccc1F,,inactive: 4.14%
S=c1nc[nH]c2c1[nH]c1ccc(Cl)cc12,"inconclusive: 3.88 µM [activator, full curve]",
N#Cc1c(N)nc(SCC(=O)C23CC4CC(CC(C4)C2)C3)c(C#N)c1-c1ccc(Cl)cc1,active: 12.3 µM,
Cc1cc(C(=O)OCC(=O)c2ccc(Br)s2)no1,"inconclusive: 21.8 µM [activator, partial curve]",
CCN(CC)CCCCCC(=O)Nc1ccccc1C(=O)Nc1ccccc1,,inactive: -1.53% [at 125 µM]
Cn1cnnc1SCC(=O)Nc1cc(S(=O)(=O)N2CCCCC2)ccc1Cl,"inconclusive: 17.3 µM [activator, partial curve]",
CCOC(=O)CC(NC(=O)CCc1c(C)nc2nc(C)nn2c1C)c1ccc(OC(C)C)cc1 (stereo not drawn),"inconclusive: 27.5 µM [activator, partial curve]",
O=C(Cn1nc(-c2cccc([N+](=O)[O-])c2)c2ccccc2c1=O)NCC1CCCO1 (stereo not drawn),"inconclusive: 38.9 µM [activator, partial curve]",
CCN(CC)S(=O)(=O)c1ccc2c(c1)N(CC(=O)Nc1cccnc1Cl)C(=O)CO2,"inconclusive: 9.74 µM [activator, partial curve]",
COc1ccc(NC(=O)CSc2ccc3nnc(-c4cccnc4)n3n2)cc1OC,"inconclusive: 38.9 µM [activator, partial curve]",
CN(C)c1ccc(NC(=O)C2C3C=CC(C3)C2C(=O)O)cc1 (stereo not drawn),,inactive: -6.82%
COCCNC(=O)NC(=O)COC(=O)C12CC3CC(CC(NC(C)=O)(C3)C1)C2,,inactive: 4.39% [at 44.7 µM]
COC(=O)c1ccc(COc2ncnc3ccccc23)o1,"inconclusive: 43.6 µM [activator, partial curve]",
C[C@H](Cc1ccccc1)Nc1ncnc2c1ncn2[C@@H]1O[C@H](CO)[C@@H](O)[C@H]1O,"inconclusive: 43.6 µM [activator, partial curve]",
COc1ccc(-n2ncc3c(N4CCC(C(N)=O)CC4)ncnc32)cc1,"inconclusive: 19.5 µM [activator, full curve]",
Cc1ccc(-n2nnc3c(=O)n(CC(=O)NCC4CCCO4)cnc32)cc1 (stereo not drawn),active: 30.9 µM,
COc1ccc(/C=N/NC(=O)Cn2cnc3c2c(=O)n(C)c(=O)n3C)cc1,"inconclusive: 27.5 µM [activator, partial curve]",
COc1ccc(C=O)cc1CN1C(=O)c2ccccc2C1=O,"inconclusive: 34.6 µM [activator, partial curve]",
CC(C)CC(OC(=O)c1nsc(Cl)c1Cl)C(=O)NCC1CCCO1 (stereo not drawn),"inconclusive: 27.5 µM [activator, partial curve]",
COc1cccc(/C=N/NC(=O)Cn2cnc3c2c(=O)n(C)c(=O)n3C)c1OC,"inconclusive: 34.6 µM [activator, partial curve]",
CC(=O)Nc1c2c3c(cccc3n(C)c1=O)C(=O)c1ccccc1-2,,inactive: 20.1% [at 44.7 µM]
